Data as given in the supplement of paper PMC10126150.
Sequences with one replicate were seen in a single cluster, so their values are uncertain.

Test system: ATP
Assay: switch fluorescence ratio, 500 uM ATP over buffer (Cy3 cluster intensity, sum of 5 cycles each) (fold (ratio)); higher = stronger signal-on switching upon ATP binding; sequences stand for … in TCGTCGGCAGCGTCAGATGTGTATAAGAGACAGTTTTTTTTTTTTTTTTTTTTTTTTT…TC
Details: aptamer strand: ATP DNA aptamer (quencher-CACCTGGGGGAGTATTGCGGAGGAAGG + anchor), 100 nM annealed; ATP concentration: 500 uM; one replicate
In short: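 For every switch-domain sequence, the fluorescence ratio is the mean of per-cluster values, each being summed target-cycle Cy3 intensity over summed buffer-cycle Cy3 intensity. Clusters outside 100-1000 RFU were excluded. On a modified Illumina MiSeq flow-cell, the Cy3-labelled switching-strand clusters were annealed to 100 nM quencher-labelled ATP aptamer, imaged in selection buffer and then after 15 min with 500 uM ATP at 22 °C. Five such cycles were run, with NaOH stripping and re-annealing between them.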
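Note: ATP exposure 15 min at 22 °C before imaging.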

Sequence	switch fluorescence ratio
GGGCGATTAC	1.74
TCCAAATTCC	1.02
TGGTGCCCCT	0.99
TCCATTGATT	1.01
TGAGGAACTC	1.01
TTGATCCCTA	0.997
TCTTGCAACA	1.07
GTATTATGAT	0.991
TCATCTGATG	0.972
GACATTGGCG	1.01
TTAGCGACG	1.04
AGACGGGCTG	1.01
TGGGCCATTA	0.973
GTGTATGACC	0.994
CCCTTGTCTT	0.96
ATACGTTTCT	1.03
GCGCTCTTCA	0.984
CAATGAAGCG	1.05
GGTATGATCA	1
CAGTATGGAT	0.975
CTGGCGCGCC	1.05
AAGAAAAACT	1.43
CATGCCACGT	0.996
CGAGTGACAA	1.11
GACACTGATA	1.07
TCTCAACGTG	1.02

Sequence	switch fluorescence ratio
GCGTCATTTG	0.979
CTTTCTGTCG	1
AATACTTTCA	1.05
ACTGCAGCGA	1.18
TCTGGAATGG	1.49
GAGCTACCAG	1.05
TCTTTCTAGT	0.979
CCATTCCTAG	1.05
ATCGCTCTC	1.91
AATCTAGGTG	1.29
TCTCTACTCG	1.01
GATGGGACT	1.05
CCAGGACAGC	1.09
GGGGTCGCTT	1
GTGTAATATG	0.989
GGCTGCCTAT	1.03
CCGATGATTA	1.19
CGAAGCACAA	4.32
ACAGTGACGG	1.04
TTATCCA	0.951
AAAGCATGGT	1.01
GGAAGCAGTC	1.03
TGACTGTGGC	1.01
ATATTCATGC	0.997
ACCGGTAGCT	0.983
CGAGTTGTAA	0.991

Sequence	switch fluorescence ratio
ATGGACGAGT	0.972
CTCTGACTAC	4.51
CACCAGTCCC	1.03
CCAACAAAGG	1.04
ATAACGTGCT	0.997
TAGCATGCGT	0.962
GAGTTACCGC	0.97
TGAATGCGGA	0.991
GGTAACCGTG	0.968
AGGCGTGCTG	1.16
GCCGCCCTGA	1.13
GGGGCGTCCT	0.985
AGTAATCGGG	1.02
CGCCTCAGTA	1.09
CTGAGTGCG	1.07
AGAACCGATG	1.11
GTTCTATGGG	0.967
AACCGTTCGG	0.942
CGCCTCATGT	1.02
ACTGATCCCA	1.01
AATTGCAGCC	1.07
ATAGCGGGAT	1.07
CCTACCGAGT	1.55
GGGTTTACGC	0.995
AGAAAGCTTA	0.997
AACAGTCATA	1.01

Sequence	switch fluorescence ratio
GCCACAATGG	1.22
AGGTCGGCAG	0.996
GGTCTGCCTA	1.07
AAGTGTAGAT	1.06
ACGTCACTGA	1.49
CCCCGCTCCA	4.07
AGCTGAGGTG	1.05
TCATATCAA	0.977
ACTGTCGGGA	1
CTGAATGCCT	1.37
CGTTAAATCC	0.987
TAATAACTCA	1.08
GGATTCGGT	0.972
ATTCGTACCA	1.01
CATGAGCATG	1.07
AGGGACTTAG	0.995
AGGCCGAGGT	0.97
GAATTCTCTC	0.997
CACCATGTCT	1
ATGGTTAAAA	0.986
TTAGCAA	2.14
TTTTCCAGGA	0.998
GGGATCGAAA	1.01
CATGATCCCC	0.986
CTGGTACAAC	1.03
GTCCGGCGGC	1.01

Sequence	switch fluorescence ratio
CGTCACGGGG	1.03
GCGGAGCAGG	1.09
CGAGGTCGTC	0.966
TTCGGTTAAA	0.962
CGCTCGGCTC	1.09
TACCGGTTCC	1.03
CTTGTCCGGG	0.986
GAACGGTCGG	0.982
CGCTGATTTT	0.981
CGGTGCGTTT	1.04
CTCGGTTGT	0.968
CGCAAAACGT	3.88
AAACTGCGGG	0.997
CTGTGATCCG	1.03
GGGGTCAGGC	0.998
ACAGCTCTAA	1.01
GATCAAACTC	0.984
TGGTTCCGGT	0.999
CCTCGTGGTG	1.37
GCAGCTTTGA	1.07
GGGGTTGCTA	0.981
CTGACTAAAG	0.992
ATATGAAACG	0.993
CGTTTGGGGC	0.983
TCTCAGTATG	1.03
CTATGTCCGA	1

Sequence	switch fluorescence ratio
CGGTCCGGGA	1.04
CTTCTAAGGA	1.02
GTAGATAGTC	0.995
ACTCAAGGGC	1.21
CTTTGTTATT	0.999
AATTTCTCTC	0.997
CGTGGAGATC	1.06
GAGATTGA	0.995
GGGGGTTAA	1.03
CCTAGTGGCG	1.04
TTATGCAGAT	0.947
CGTTAATGGT	0.975
CGTGTAGCAC	1.13
ACACAGTTGG	0.949
CAGTGTTAG	1.07
TCAACGTCG	0.929
GCCCTATTTT	0.96
ATAAGTATGC	1.13
GGCCCGG	0.993
GGCCGAGGCA	1.02
CGCTACCCCG	1.16
CTATATGCAA	1.44
CTGATCGGCA	1.15
GGAATCTAA	1.02
